Results on 167 variants are retold here after the RNAGym collection of RNA variant scans (doi:10.7554/elife.90254).

The source gives no read counts; variants with many changes may rest on few reads.

The chains are these.
B1: LINE1-mini (parent)
chain: GGCAGAGCUCAACACAGCGUGGCAAAGUGGCUGUGGCUAGACUGCC

This data set covers variants of B1. Briefly: self-cleavage, relative activity (ratio to wild type); higher = more cleavage; in vitro, sequencing; the parent is a self-cleaving ribozyme.
Take G5U G21A C42U: the self-cleavage worked out at 0.13.

On to G5U G17A G19U, for which the self-cleavage amounted to 0.79.

For G5U A6C C10A U43C C46A, the self-cleavage is 0.01.

In the case of A6C A25G U38A, the self-cleavage worked out at 0.21.

Consider G5U C18U U20G G29U, for which the self-cleavage was found to be 0.02.

For G5U A12U G40A A41C C46U, the self-cleavage was 0.07.

For the variant G5U C13G C31A, the self-cleavage was determined as 0.04.

With G5U C13G C31U, the self-cleavage was found to be 0.04.

On to G5U C18U C23G A24U G40A G44C, for which the self-cleavage stood at 0.04.

Turning to G5U C10U A12U A16C C18G G29C, the self-cleavage is 0.08.

In the case of A6C A14G C18U, the self-cleavage was 0.08.

For G5U G7A C10U, the self-cleavage came out at 0.1.

As for G5U A12U C23A U28A A39U, the self-cleavage was 0.04.

Regarding G5U A16G G21U C23U A25U U34C C45G, the self-cleavage stood at 0.03.

For the variant G5U C31U G35U A41G, the self-cleavage turned out to be 0.02.

Turning to G5C U28G G44A, the self-cleavage was 0.02.

For the variant G5U G27A G33U G44A, the self-cleavage came out at 0.06.

With G5U C10A A26G G29A, the self-cleavage was 0.01.

Turning to G5U C15G A16C C18A A26G G30U C37G, the self-cleavage worked out at 0.01.

G5U C18U A26U G29C G33A: the self-cleavage was 0.03.

For G5U G17U U32G, the self-cleavage was found to be 0.01.

Turning to G5U C31G G44A, the self-cleavage was 0.03.

As for G5U A14U G29U, the self-cleavage was 0.15.

Regarding G5U C10G G22U, the self-cleavage was 0.02.

For the variant G5U G36U C45A, the self-cleavage was 0.14.

With G5U G7U A12U G19A A26U G27A C46G, the self-cleavage amounted to 0.19.

For G5U G22U A26U U32A, the self-cleavage was 0.01.

For the variant G5U A16G A24U G44U, the self-cleavage came out at 0.03.

For G5U A6U G27C U34C G36A, the self-cleavage stood at 0.03.

On to G5U U32C G35A G36A, for which the self-cleavage was 0.03.

With G5U A6U G36U, the self-cleavage is 0.07.

Regarding G5U U9G A25U G29C, the self-cleavage was 0.02.

For G5U C10U G17U C18A G22A, the self-cleavage stood at 0.04.

As to G5U A6U C10U A16G A26U G30C U38C, the self-cleavage is 0.03.

For the variant G5U C8U G17A G27C G44C, the self-cleavage amounted to 0.03.

With G5U C10A C15U A26G G36A, the self-cleavage was 0.01.

Turning to G5U C15A A16C A41U C46G, the self-cleavage stood at 0.04.

Turning to G5U A26G U28C C46A, the self-cleavage turned out to be 0.05.

In the case of G5U A11G G36U G44U C45G, the self-cleavage is 0.

Take G5U A6C G40A: the self-cleavage is 0.11.

Take G5U A14G G27C: the self-cleavage came to 0.01.

In the case of G5U A12G C37G, the self-cleavage is 0.05.

Turning to G5U C10A G44A C46U, the self-cleavage came out at 0.05.

Turning to G5U U9A C10A, the self-cleavage is 0.05.

On to G5U G17U A24C, for which the self-cleavage was 0.08.

For the variant A6C A39G C42A, the self-cleavage was determined as 0.08.

On to G5U G7A G21U, for which the self-cleavage stood at 0.29.

On to G5U C18A G22U A26U, for which the self-cleavage turned out to be 0.05.

For G5U G22A C42U, the self-cleavage was found to be 0.12.

For G5U U9A G22A, the self-cleavage came out at 0.08.

On to G5U A26C G35C U38A A39C A41C, for which the self-cleavage was 0.03.

In the case of G5U G7U G22A G35U, the self-cleavage came to 0.27.

As to G5U A14U G36A G40A, the self-cleavage stood at 0.05.

G5U C23G A41U: the self-cleavage was 0.09.

Turning to G5U C23A U28C, the self-cleavage is 0.04.

For the variant G5U C18U U34A U43G G44U, the self-cleavage stood at 0.

G5U G7U C10A C15U U32A C37G: the self-cleavage came out at 0.02.

For the variant G5U G19A U38A C42A, the self-cleavage amounted to 0.23.

Turning to A6C A14C G19C, the self-cleavage stood at 0.01.

For G5U A6C G36U, the self-cleavage came to 0.03.

In the case of G5U A26U G35U C42G, the self-cleavage came out at 0.03.

For the variant G5U G21U U28A C37U, the self-cleavage amounted to 0.03.

Turning to A6C A11C A26U G27C C42U, the self-cleavage was 0.01.

Take A6C C8G U43G: the self-cleavage stood at 0.

Take A6C A24C U28C G36C C46A: the self-cleavage came out at 0.02.

As to G5U C8A G21A, the self-cleavage was found to be 0.74.

As to A6C A11C A24G, the self-cleavage was 0.01.

On to G5U G17C C23A, for which the self-cleavage is 0.06.

For the variant G5U G22A U32G A41G, the self-cleavage is 0.02.

Take G5U G17C C23A A25C A41G: the self-cleavage came to 0.01.

As for G5U G7A C8A C10A G36U, the self-cleavage amounted to 0.03.

For A6C A16G A26G C37U C45A, the self-cleavage came to 0.02.

For the variant G5U C13U G30A U34C, the self-cleavage was found to be 0.06.

For G5U A16C G27U C37U, the self-cleavage worked out at 0.07.

Consider A6C A12U A16U, for which the self-cleavage amounted to 0.02.

G5U G7C C15U G44U: the self-cleavage came out at 0.08.

Turning to G5U G33C C37U, the self-cleavage was determined as 0.02.

With G5U C8A G30A C37A, the self-cleavage turned out to be 0.24.

Regarding G5U A6C G7A, the self-cleavage is 0.1.

Regarding A6C A16G G17U G27A G29A U32A G36A, the self-cleavage was 0.18.

For the variant G5U A16C C31G G35U C45U, the self-cleavage was found to be 0.

With G5U A12U A26U C37U C46A, the self-cleavage was 0.02.

Regarding G5U A12C A16C C37G, the self-cleavage turned out to be 0.04.

G5U C8U G22C G29C: the self-cleavage came to 0.03.

G5U U9C C10U A11G G29U G33U: the self-cleavage came out at 0.02.

As for G5U G29C C31U A41C, the self-cleavage came to 0.03.

Consider G5U C8U C15G C31A G40U, for which the self-cleavage was 0.11.

Regarding A6C A11G G29U, the self-cleavage turned out to be 0.03.

In the case of G5U A14C A26G G27A, the self-cleavage was 0.03.

As to G5U A25C G44A, the self-cleavage came out at 0.09.

Turning to G5U A6U A12U G19A G22A G29U G33A C42A, the self-cleavage amounted to 0.08.

Consider G5U G7U U28G C31G C37G, for which the self-cleavage was 0.2.

G5U A11G C42A U43G C45U: the self-cleavage stood at 0.01.

Regarding G5U A12G A14C G17C G19U G30U A41U, the self-cleavage was 0.01.

With G5U A11G A24C, the self-cleavage was determined as 0.01.

As for G5C U32G G33A, the self-cleavage was 0.03.

Take A6C A12C A16C C42U: the self-cleavage stood at 0.12.

Take G5U U20A G33A U38C: the self-cleavage amounted to 0.03.

For the variant A6C A11G U20G, the self-cleavage amounted to 0.01.

As to G5U A12C C31G U34G A41C, the self-cleavage is 0.02.

For the variant G5U C8G G40U, the self-cleavage turned out to be 0.17.

Regarding G5U A16U C18G C23G C46A, the self-cleavage turned out to be 0.05.

Consider G5U U9G C18U, for which the self-cleavage is 0.04.

As to G5U G22A C45A, the self-cleavage was determined as 0.04.

As to A6C A26C U38A C45A, the self-cleavage worked out at 0.84.

Regarding G5U G7U C13G, the self-cleavage came out at 0.25.

Regarding G5U C10G G29A, the self-cleavage was determined as 0.02.

For G5U A6G A25G U28C A41U, the self-cleavage was 0.03.

Regarding G5U U20A C46A, the self-cleavage came out at 0.04.

G5U A6U C15U G30U: the self-cleavage came out at 0.19.

Consider G5U A24U A26G, for which the self-cleavage worked out at 0.08.

G5U A16U G29U: the self-cleavage stood at 0.07.

For the variant G5U C13A C45G, the self-cleavage is 0.03.

For the variant A6C A16C G40C, the self-cleavage was determined as 0.06.

For the variant G5U G21C C46A, the self-cleavage was 0.03.

On to G5U C18U G40U, for which the self-cleavage is 0.07.

Regarding G5U C15G U20A G21C A39C, the self-cleavage was found to be 0.01.

Regarding G5U C37G A39U, the self-cleavage worked out at 0.04.

Take G5U G35A C37U: the self-cleavage came to 0.02.

On to G5U G22C C46G, for which the self-cleavage is 0.01.

As for G5C U20A G35A C37G A41C, the self-cleavage is 0.1.

Regarding G5U C10A C13A A14G, the self-cleavage came to 0.03.

G5C U28C A39U A41U: the self-cleavage was 0.09.

G5U C15U G33C: the self-cleavage amounted to 0.07.

On to G5U C15U G33A, for which the self-cleavage turned out to be 0.04.

Regarding G5U C8G A11C A12U G22A A39G, the self-cleavage came out at 0.01.

In the case of G5U A16C A26U G30A, the self-cleavage amounted to 0.04.

As for G5U U9G C45G, the self-cleavage came out at 0.12.

Take G5U G35C A41C: the self-cleavage was determined as 0.13.

As for G5U C8U C10A C18A G27C, the self-cleavage is 0.02.

With G5U A25U G40C C45G, the self-cleavage turned out to be 0.

As to G5U C10G G17U U38A, the self-cleavage was 0.

Consider G5U C8U G27U U34G U38C, for which the self-cleavage was 0.03.

Consider A6C C8A C13U, for which the self-cleavage was 0.1.

As for G5U G29A C42A, the self-cleavage amounted to 0.31.

As for G5U G7A U9A, the self-cleavage was found to be 0.2.

In the case of G5U A6C A24U G30A, the self-cleavage was 0.17.

Take A6C C8A C18G G21A G35A: the self-cleavage was 0.04.

In the case of G5U U32G C46A, the self-cleavage was 0.04.

Turning to G5U G17A G29C U34A G40A, the self-cleavage came out at 0.02.

Consider G5U C13U C18U U20A C37A, for which the self-cleavage amounted to 0.04.

On to G5U A14G G17A, for which the self-cleavage stood at 0.04.

As for G5U A12G G33A, the self-cleavage is 0.04.

Turning to G5U C13A G40C, the self-cleavage was found to be 0.02.

As to G5U C13A G17C, the self-cleavage is 0.05.

For the variant G5U A16U G17U G36U U43A, the self-cleavage turned out to be 0.01.

Consider A6C A16U C18A U34C C37G, for which the self-cleavage was 0.06.

Regarding G5U A6C U32A, the self-cleavage was found to be 0.05.

As to G5U G27U C42U, the self-cleavage was determined as 0.09.

Take G5U C10A G22U C37U: the self-cleavage was 0.01.

For G5U C18A U32G, the self-cleavage amounted to 0.03.

Turning to G5C U20G G21C C23A A24C, the self-cleavage is 0.01.

Regarding A6C C8G A16C G40C, the self-cleavage is 0.07.

In the case of G5U U9A A16C C31U, the self-cleavage was determined as 0.04.

As to G5U C18G G22U, the self-cleavage amounted to 0.03.

In the case of G5U U9A C45G, the self-cleavage amounted to 0.04.

For G5U G17A G19U C31G, the self-cleavage was 0.02.

For the variant G5U C37U C42A C45G, the self-cleavage came to 0.01.

For the variant G5U A24U C37G, the self-cleavage was found to be 0.02.

In the case of G5C U28A G29C G33C A39C G44C, the self-cleavage stood at 0.01.

Take G5U A11G C13A A24C G29A C45U: the self-cleavage turned out to be 0.02.

On to G5U A14C G17U G21C, for which the self-cleavage amounted to 0.14.

Regarding G5U G27A C37U, the self-cleavage came out at 0.04.

As for G5U G17U C23G, the self-cleavage was found to be 0.04.

For G5U C15A U32A C37U G40U, the self-cleavage is 0.05.

For the variant G5U A24C C37U, the self-cleavage was determined as 0.11.

G5U G21U U43G: the self-cleavage is 0.05.
